For five molecules, binding results are on record in publication PMC10653391.

Chains of the proteins cited; added tags and fusions are not shown.
UniProt Q52LJ0: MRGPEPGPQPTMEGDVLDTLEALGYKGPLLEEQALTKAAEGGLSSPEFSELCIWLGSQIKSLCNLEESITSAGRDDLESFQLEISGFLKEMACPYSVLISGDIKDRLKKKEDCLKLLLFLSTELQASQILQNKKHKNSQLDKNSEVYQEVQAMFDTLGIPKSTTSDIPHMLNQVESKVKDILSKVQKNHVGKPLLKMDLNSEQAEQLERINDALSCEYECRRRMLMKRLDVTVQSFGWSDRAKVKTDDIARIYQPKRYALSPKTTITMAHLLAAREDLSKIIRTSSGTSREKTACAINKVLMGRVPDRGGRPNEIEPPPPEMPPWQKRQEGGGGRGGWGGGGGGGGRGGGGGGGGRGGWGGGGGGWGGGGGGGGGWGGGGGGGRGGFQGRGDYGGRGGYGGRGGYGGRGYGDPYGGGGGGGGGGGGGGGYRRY

No constants are given. Whether binding was seen depends on the method and setting. In cells and extracts the contact can be indirect. Some results given as binding are weak or reduced against the parent protein; the word gives no strength. Sequences can lack the tags named with a protein.

What all share (assay): co-IP; kinetic trapping: FLAG-TRX variants precipitated on M2 FLAG-beads from lysates of HeLa RIEP shTRX cells (endogenous TRX silenced with 2 µg/mL Dox for 3 d); cells left untreated or treated with H2O2 for 3 min, menadione for 15 min, or Tm or Tg for 4 or 8 h; 20 mM NEM; buffer 1 (25 mM TRIS pH 7.4, 5 mM MgSO4, 150 mM NaCl, 0.3% Triton X-100); washes up to 500 mM NaCl; elution with FLAG-peptide in nonreducing conditions; western blot of eluates; partners held by an intermediate disulfide bond
On the technique in general: Immunoblotting shows a protein as a band on a membrane.

One assay has as its target T1, FLAG-TRX CxxS (human) (UniProt P10599).
T1 sequence: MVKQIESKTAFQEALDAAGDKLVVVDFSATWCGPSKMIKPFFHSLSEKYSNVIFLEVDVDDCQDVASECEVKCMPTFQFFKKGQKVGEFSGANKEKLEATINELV

For another assay, the target named is T2, FLAG-TRX CxxC (human) (UniProt P10599).
T2 sequence: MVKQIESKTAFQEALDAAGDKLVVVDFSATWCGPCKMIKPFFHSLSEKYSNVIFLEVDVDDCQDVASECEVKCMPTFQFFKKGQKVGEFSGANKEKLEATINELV

In another assay the target is T3, FLAG-TRX SxxS (human) (UniProt P10599).
T3 sequence: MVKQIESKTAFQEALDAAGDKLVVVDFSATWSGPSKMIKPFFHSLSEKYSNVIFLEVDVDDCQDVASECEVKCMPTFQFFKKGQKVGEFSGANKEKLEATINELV

Turning to FAM98B (from UniProt Q52LJ0 1-433), in the assay with FLAG-TRX CxxS (human), the binding result was “no binding”.

B1: CGI-99 (RTRAF/hCLE) (protein, UniProt Q9Y224 1-244)
chain: MFRRKLTALDYHNPAGFNCKDETEFRNFIVWLEDQKIRHYKIEDRGNLRNIHSSDWPKFFEKYLRDVNCPFKIQDRQEAIDWLLGLAVRLEYGDNAEKYKDLVPDNSKTADNATKNAEPLINLDVNNPDFKAGVMALANLLQIQRHDDYLVMLKAIRILVQERLTQDAVAKANQTKEGLPVALDKHILGFDTGDAVLNEAAQILRLLHIEELRELQTKINEAIVAVQAIIADPKTDHRLGKVGR
B1: the binding result with FLAG-TRX CxxS (human) is reported as “no binding”.

B2: RTCB (RNA-splicing ligase RtcB homolog) (enzyme, UniProt Q9Y3I0 1-505)
chain: MSRSYNDELQFLEKINKNCWRIKKGFVPNMQVEGVFYVNDALEKLMFEELRNACRGGGVGGFLPAMKQIGNVAALPGIVHRSIGLPDVHSGYGFAIGNMAAFDMNDPEAVVSPGGVGFDINCGVRLLRTNLDESDVQPVKEQLAQAMFDHIPVGVGSKGVIPMNAKDLEEALEMGVDWSLREGYAWAEDKEHCEEYGRMLQADPNKVSARAKKRGLPQLGTLGAGNHYAEIQVVDEIFNEYAAKKMGIDHKGQVCVMIHSGSRGLGHQVATDALVAMEKAMKRDKIIVNDRQLACARIASPEGQDYLKGMAAAGNYAWVNRSSMTFLTRQAFAKVFNTTPDDLDLHVIYDVSHNIAKVEQHVVDGKERTLLVHRKGSTRAFPPHHPLIAVDYQLTGQPVLIGGTMGTCSYVLTGTEQGMTETFGTTCHGAGRALSRAKSRRNLDFQDVLDKLADMGIAIRVASPKLVMEEAPESYKNVTDVVNTCHDAGISKKAIKLRPIAVIKG
Take B2: the binding result in the assay with FLAG-TRX CxxS (human) is recorded as “binds”; with FLAG-TRX CxxC (human) it was “no binding”; with FLAG-TRX SxxS (human) it was “no binding”.

B3: Peroxiredoxin 1 (PRDX1) (enzyme, UniProt Q06830 1-199)
chain: MSSGNAKIGHPAPNFKATAVMPDGQFKDISLSDYKGKYVVFFFYPLDFTFVCPTEIIAFSDRAEEFKKLNCQVIGASVDSHFCHLAWVNTPKKQGGLGPMNIPLVSDPKRTIAQDYGVLKADEGISFRGLFIIDDKGILRQITVNDLPVGRSVDETLRLVQAFQFTDKHGEVCPAGWKPGSDTIKPDVQKSKEYFSKQK
As to B3, the binding result with FLAG-TRX CxxS (human) is recorded as “binds”.

B4: DDX1 (protein, UniProt Q92499 1-740)
chain: MAAFSEMGVMPEIAQAVEEMDWLLPTDIQAESIPLILGGGDVLMAAETGSGKTGAFSIPVIQIVYETLKDQQEGKKGKTTIKTGASVLNKWQMNPYDRGSAFAIGSDGLCCQSREVKEWHGCRATKGLMKGKHYYEVSCHDQGLCRVGWSTMQASLDLGTDKFGFGFGGTGKKSHNKQFDNYGEEFTMHDTIGCYLDIDKGHVKFSKNGKDLGLAFEIPPHMKNQALFPACVLKNAELKFNFGEEEFKFPPKDGFVALSKAPDGYIVKSQHSGNAQVTQTKFLPNAPKALIVEPSRELAEQTLNNIKQFKKYIDNPKLRELLIIGGVAARDQLSVLENGVDIVVGTPGRLDDLVSTGKLNLSQVRFLVLDEADGLLSQGYSDFINRMHNQIPQVTSDGKRLQVIVCSATLHSFDVKKLSEKIMHFPTWVDLKGEDSVPDTVHHVVVPVNPKTDRLWERLGKSHIRTDDVHAKDNTRPGANSPEMWSEAIKILKGEYAVRAIKEHKMDQAIIFCRTKIDCDNLEQYFIQQGGGPDKKGHQFSCVCLHGDRKPHERKQNLERFKKGDVRFLICTDVAARGIDIHGVPYVINVTLPDEKQNYVHRIGRVGRAERMGLAISLVATEKEKVWYHVCSSRGKGCYNTRLKEDGGCTIWYNEMQLLSEIEEHLNCTISQVEPDIKVPVDEFDGKVTYGQKRAAGGGSYKGHVDILAPTVQELAALEKEAQTSFLHLGYLPNQLFRTF
Take B4: the binding entry with FLAG-TRX CxxS (human) is given as “no binding”.
